Source: PubChem BioAssay AID686971 (National Center for Advancing Translational Sciences (NCATS), 2013)
Hit rate of the full screen: of about 360,000 compounds, about 7,500 (2.1%) were called active. Inconclusive means that the source gave no clear call. Such entries were picked first, then a sample of the others. Calls come from the whole dose curve; as a rule, active = well fitted cell-killing curve with a large enough effect; inconclusive = small, poorly fitted or top-dose-only effect, or effect the other way, or another doubt; inactive = no such curve, though single readings can be large or run the other way. No potency is given beside an inconclusive call; the fits are too rough.

test: qHTS for induction of synthetic lethality in tumor cells producing 2HG: qHTS for the HT-1080-IDH1KD cell line; details: HT-1080 IDH1 knockdown viability, ATP luminescence, 48 h; activity, negative = toxicity: at 46.1 µM (top of the series) unless noted;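 for activity, negative = toxicity: 0% = DMSO wells and -100% = cell-free medium wells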
In short: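 After a 2 h attachment period, IDH1KD HT-1080 cells took pin-transferred compound for 48 h at 37 °C; ATP-based luminescence after 10 min room-temperature reagent incubation reported viability.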
Potency is the fitted concentration of half-maximal effect; tags give direction and shape of the fitted curve.

SMILES	Potency	activity, negative = toxicity
COC(=O)c1ccc(NC(=O)c2ccccc2OCC(=O)Nc2ccc(Br)cc2)cc1	inconclusive [cytotoxic, single point]	
CCOP(=O)(OCC)c1nc(/C=C/c2ccccc2)oc1NCc1ccc(OC)cc1	inconclusive [cytotoxic, single point]	
CCCCC[C@@H](C)N1C[C@@H](COCc2ccccc2)Oc2cc(N3CCC[C@@H]3CO)ccc2S1(=O)=O	inconclusive [cytotoxic, single point]	
CSc1cccc(N=C2C(=O)Nc3ccccc32)c1	inconclusive [cytotoxic, partial curve]	
Cc1ccccc1-n1c(SCC(=O)N2CCN(c3ccccc3)CC2)nnc1-c1ccncc1		inactive: 1.62%
CC1CC(C)CN(CC(=O)Nc2cc(S(=O)(=O)N3CCOCC3)ccc2N2CCCC2)C1 (centres undefined)		inactive: -0.174%
CCOC(=O)c1cnc(-n2nc(C)cc2C)nc1NNc1nc(-c2ccccc2)cc(-c2ccccc2)n1	inconclusive [cytotoxic, partial curve]	
O=[N+]([O-])c1ccc(S(=O)(=O)c2cccc(C(F)(F)F)c2)nc1	active: 7.31 µM	
O=C(c1ccc(N2CCCC2=O)cc1)N1CCN(c2ccc(C(F)(F)F)cc2[N+](=O)[O-])CC1		inconclusive: -30.5% [cytotoxic]
O=C(Nc1ccc(Cl)cc1)Nc1nnc(-c2ccncc2)s1		inactive: 11.4%
O=C(N/N=C\c1cn(-c2ccccc2)nc1-c1ccccc1)c1ccc(Br)o1	inconclusive [cytotoxic, single point]	
CCn1c(SCC(=O)Nc2cccc(NC(=O)c3cccs3)c2)nnc1-c1ccncc1		inactive: -11.6%
O=C(NC1CCCN(Cc2ccc(Cl)cc2)C1)c1cnc2ccccn2c1=O (centres undefined)		inactive: -16.6%
Cc1ccccc1S(=O)(=O)N1C(c2ccc(Cl)c(Cl)c2)CC=C(C(=O)O)C1c1cccc(Br)c1 (centres undefined)	inconclusive [cytotoxic, single point]	
C=CCc1cccc(/C=N/NC(=O)CCC(=O)Nc2ccc(F)cc2)c1O	active: 23.1 µM	
CC1CCN(C2=C(NS(=O)(=O)c3ccc(Br)cc3)C(=O)c3ccccc3C2=O)CC1		inactive: -24%
CCOC(=O)NNc1ccc2nonc2c1[N+](=O)[O-]	inconclusive [cytotoxic, single point]	

SMILES	Potency	activity, negative = toxicity
COc1ccc(CCNC(=O)CN2C(=O)COc3ccc(S(=O)(=O)N4CCOCC4)cc32)c(OC)c1	inconclusive [rising, single point]	
CN(CCOc1ccc(Br)cc1)CC(O)COc1ccc(C#N)cc1 (centres undefined)	inconclusive [cytotoxic, single point]	
CCCOC(=O)c1ccc(Oc2c(-c3ccc(O)cc3O)n[nH]c2C)cc1	inconclusive [cytotoxic, single point]	
CC(=O)Nc1cccc(Oc2nc(NC(C)C)nc3cc(-c4ccccc4)sc23)c1	inconclusive [cytotoxic, single point]	
CCOC(=O)/C=C/C(=O)Nc1ccc(S(=O)(=O)N2CCCCCC2)cc1	inconclusive [cytotoxic, single point]	
O=C(Nc1nnc(C2CC2)s1)C1Cc2ccccc2CN1S(=O)(=O)c1ccccc1F (centres undefined)	active: 12.6 µM	
COCCNC(=S)N1CCN(c2cccc(C(F)(F)F)c2)CC1	inconclusive [cytotoxic, single point]	
Cc1ccc(S(=O)(=O)N(C)C[C@@H]2OCc3cnnn3CCCC(=O)N([C@H](C)CO)C[C@H]2C)cc1		inactive: -0.13%
Cc1ccc(Cn2ncc3c(N4CCN(c5ccc(C)cc5)CC4)ncnc32)cc1		inactive: -15.1%
CC(C)CCNC(=O)C(=O)Nc1ccc2c(c1)N(S(=O)(=O)c1cccs1)CCC2	active: 2.59 µM	
Cc1nc(NCCc2ccc(O)cc2)c2nnn(Cc3ccccc3)c2n1	inconclusive [cytotoxic, full curve]	
CCOC(=O)c1cc(-c2ccc(C)cc2)n(CCC(=O)NCCN(C)C)c1C	inconclusive [cytotoxic, single point]	
CC(C)c1ccc(S(=O)(=O)/N=C2/C=C(Sc3ncn[nH]3)C(=O)c3ccccc32)cc1	active: 4.61 µM	
COc1cc(-c2n[nH]c(=S)n2/N=C/c2cccn2C)cc(OC)c1OC		inactive: -20.5%
COc1ccccc1NC(=O)c1nnn(CC(=O)Nc2ccccc2)c1N	inconclusive [cytotoxic, single point]	
Cc1ccccc1OCC(=O)N(Cc1nc(-c2ccccc2)no1)C(C)C		inactive: -4.87% [at 9.24 µM]
Cc1cc(/C=N/n2cnnc2)c(C)n1-c1ccc(OCc2ccc(Cl)cc2)cc1	inconclusive [cytotoxic, single point]	
